Test results as given in PMC9911399, “Two distinct binding modes provide the RNA-binding protein RbFox with extraordinary sequence specificity”.
Substitutions are numbered along the chain they refer to; changes in the protein carry UniProt numbers. Some of the results follow.

T1: RBFOX1 RRM RbFoxmut (Fox-RRM*) (Homo sapiens, UniProt Q9NWB1 109-208, R118D;E147R;N151S;E152T)
T1 sequence: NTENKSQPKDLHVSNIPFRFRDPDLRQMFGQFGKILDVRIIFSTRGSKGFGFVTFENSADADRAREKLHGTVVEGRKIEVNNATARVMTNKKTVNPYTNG

B1: GGGAGGA (DNA:RNA)
RNA: GGGAGACCGGAAUUCAGAUUGUCCGGGAGGAUUAAAUCCCGUCGUAGCCACCA
DNA 1: CAATCTGAATTCCGGTCTCCC
DNA 2: TGGTGGCTACGACGGGATT
B2: UUGACUU (DNA:RNA)
RNA: B1 RNA with G25U, G26U, G29C, G30U, A31U
DNA 1: CAATCTGAATTCCGGTCTCCC
DNA 2: TGGTGGCTACGACGGGATT
B3: UGGCACU (DNA:RNA)
RNA: B1 RNA with G25U, A28C, G29A, G30C, A31U
DNA 1: CAATCTGAATTCCGGTCTCCC
DNA 2: TGGTGGCTACGACGGGATT
B4: UCCGAUG (DNA:RNA)
RNA: GGGAGACCGGAAUUCAGAUUGUCCUCCGAUGUUAAAUCCCGUCGUAGCCACCA
DNA 1: CAATCTGAATTCCGGTCTCCC
DNA 2: TGGTGGCTACGACGGGATT
B5: GGCAGAU (DNA:RNA)
RNA: B1 RNA with G27C, G30A, A31U
DNA 1: CAATCTGAATTCCGGTCTCCC
DNA 2: TGGTGGCTACGACGGGATT
B6: GCAAUCA (DNA:RNA)
RNA: B1 RNA with G26C, G27A, G29U, G30C
DNA 1: CAATCTGAATTCCGGTCTCCC
DNA 2: TGGTGGCTACGACGGGATT
B7: GUUGUAC (DNA:RNA)
RNA: B1 RNA with G26U, G27U, A28G, G29U, G30A, A31C
DNA 1: CAATCTGAATTCCGGTCTCCC
DNA 2: TGGTGGCTACGACGGGATT
B8: CGCGUUC (DNA:RNA)
RNA: B4 RNA with U25C, C26G, A29U, G31C
DNA 1: CAATCTGAATTCCGGTCTCCC
DNA 2: TGGTGGCTACGACGGGATT
B9: GGCGUCC (DNA:RNA)
RNA: B1 RNA with G27C, A28G, G29U, G30C, A31C
DNA 1: CAATCTGAATTCCGGTCTCCC
DNA 2: TGGTGGCTACGACGGGATT

What follows are binders tested against T1, RBFOX1 RRM RbFoxmut (Fox-RRM*) (assay: EMSA; HiTS-Eq, 1 nM pool, 10 min; buffer printed only for the single-RNA assays: 10 mM Tris pH 7.5, 150 mM NaCl, 3.4 mM EDTA, 0.001% NP-40, 30 C). Settings: tags: His6 N-terminal (pET28a); label: 5' 32P.
Method in brief: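 Purified RbFox RRM, wild type or mutant, was incubated for 10 min in 50 µL with 1 nM of a 5′-radiolabelled RNA pool carrying 7 randomized nucleotides, whose flanks were annealed to DNA oligonucleotides, over a series of increasing protein concentrations. Unbound RNA was resolved on 8% native PAGE, cut out, reverse-transcribed, barcoded by PCR and sequenced on an Illumina HiSeq 2500. Relative association constants were derived from changes in read counts for each RNA species versus the control reaction and normalised to the cognate motif.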

| Binder | binding signal |
| --- | --- |
| B1 | 0.0669 KA relative to UGCAUGU |
| B2 | 0.0573 KA relative to UGCAUGU |
| B3 | 0.0729 KA relative to UGCAUGU |
| B4 | 0.0878 KA relative to UGCAUGU |
| B5 | 0.0897 KA relative to UGCAUGU |
| B6 | 0.0681 KA relative to UGCAUGU |
| B7 | 0.107 KA relative to UGCAUGU |
| B8 | 0.0965 KA relative to UGCAUGU |
| B9 | 0.108 KA relative to UGCAUGU |
